Measured values from PubChem BioAssay (NCATS).
Several values for one entry are separate records, joined by “and”; a condition that tells them apart may be missing. Identical values can stand only once. The shares of active, inactive and inconclusive entries below differ from those in the screen. Potencies of inconclusive entries are doubtful fits and often do not repeat. Activity calls are given as the source filed them. The call rests on the fitted dose curve; in most records, active means well fitted cell-killing curve with a large enough effect; inconclusive means small, poorly fitted or top-dose-only effect, or effect the other way; inactive means no such curve, though single readings can be large or run the other way.

Assay: Viability qHTS for spleen associated tyrosine kinase inhibitor (SYKi) drug resistant MV4-11 cells (AID 1963824); further: nearly all actives have a fitted effect of over 35% in size
Details: SYKi-resistant MV4-11 viability, CellTiter-Glo, 72 h; series mostly up to 45 µM
Source text: Department of Medicine, Hematology/Oncology
University Hospital Frankfurt, Germany.
Trials have shown promising clinical activity of the selective SYK inhibitor entospletinib in patients with high expressing HOXA9/MEIS1 acute leukemias. As the development of resistance mechanisms is a common problem in the use of targeted drugs, we performed a chemical library screen to identify drug sensitivities in SYK inhibitor resistant AML cells. […] Glucocorticoids are potent immunosuppressants which work in part by inhibiting the transcription of cytokine genes.
Described herein is a viability screen to look for activity in the SYK inhibitor drug resistant cell line against four NCATS compound libraries (MIPE 5.0, NPC, NPACT, and Kinase) totaling 11372 compounds. Active hits were reacquired for confirmation and further secondary assay testing.
SEQUENCE No. (e.g., 1, 2, 3, etc.); […] (e.g., Cells, Incubation, Reagent, etc.); VALUE; DESCRIPTION.
1; Media; 2uL; white, solid-bottom Corning assay plate.
2; Compounds; 23nL; Echo acoustic dispenser.
3; Cell; 5uL; 500 cells per well.
4: Incubation; 72hr; 37 C, 5% CO2, 95% humidity.
5; Reagent; 3uL; CellTiter-Glo reagent (Promega).
6; Incubation; 10min; room temperature.
7; Detection; Luminescence; ViewLux plate reader (PerkinElmer).
NOTES (numbers refer to Sequence numbers above
1. Quantitative high-throughput screening (qHTS) of small molecule compounds was conducted on drug resistant SYKi MV4-11 cell line.
2. Twenty-three nanoliter of small molecule compounds were added to each assay plates using the Echo acoustic dispenser (Beckman Coulter).
3. Cells were seeded into the assay plates at a final density of 500 cells in 5uL of media per well using the Multidrop Combi dispenser.
4. Plates were covered with stainless steel gasketed lids and incubated for 72 hours at standard cell culture conditions.
5. Viability was assessed by adding 3uL of CellTiter-Glo detection reagent (Promega).
6. Plates were covered with gasket lids and incubated for 10 minutes at room temperature.
7. Luminescence was measured on a ViewLux plate reader (PerkinElmer).
Potency means the concentration at half of the fitted maximal effect; tags describe the fitted curve by direction and shape.

Row | Compound | Potency | viability, % of control
1 | Cc1nc(-c2ccc(OCC(C)C)c(C#N)c2)sc1C(=O)O | inconclusive: 33.2 µM [cytotoxic, single point] | 
2 | Cc1[nH]cnc1-c1ccc(Cl)cc1 | inactive | 
3 | CSCC1OC(n2cnc3c(N)ncnc32)C(O)C1O (stereo not given) | inactive | 
4 | CC1=C(CC(=O)O)c2cc(F)ccc2C1=Cc1ccc(S(C)(=O)=O)cc1 | inconclusive: 16.4 µM [cytotoxic, single point] | 
5 | Cc1c(Cn2ccnc2)c2ccccc2n1CCC(=O)O | inconclusive: 33.5 µM [cytotoxic, single point] | 
6 | CCCCC(=O)O[C@]1(C(=O)CO)[C@@H](C)C[C@H]2[C@@H]3CCC4=CC(=O)C=C[C@]4(C)[C@@]3(F)[C@@H](O)C[C@@]21C | inconclusive: 335 nM [cytotoxic, full curve, poor fit] and inconclusive: 11.8 µM [cytotoxic, partial curve] | 
7 | C=CC(=O)c1ccc2ccccc2c1 | inconclusive: 20.6 µM [cytotoxic, partial curve] | 
8 | CN1CCN(c2cccc(Nc3nc4c(-c5ccc(S(C)(=O)=O)cc5)cccn4n3)c2)CC1 | active: 130 nM and active: 296 nM | 
9 | CCCCCOC(=O)Nc1nc(=O)n([C@@H]2O[C@H](C)[C@@H](O)[C@H]2O)cc1F | inconclusive: 33.5 µM [cytotoxic, single point] and inactive | 
10 | COc1cc(CNC(=O)CCCC/C=C/C(C)C)ccc1O | active: 18.4 µM and inconclusive: 16.6 µM [cytotoxic, partial curve] | 
11 | O=C(O)CC(O)C(=O)O (stereo not given) | inactive | 
12 | CCCNc1ccc2ncc(-c3ccc4[nH]ncc4c3)n2n1 | active: 0.0116 µM | 
13 | CC(=O)Oc1cc(C(C)C)c(OCCN(C)C)cc1C | inactive | 
14 | CC(=O)O[C@H]1C[C@@H]2CC[C@@H]3[C@H](CC[C@@]4(C)[C@H]3C[C@H]([N+]3(C)CCCCC3)[C@@H]4OC(C)=O)[C@@]2(C)C[C@@H]1N1CCCCC1 | inactive | 
15 | Cc1cccc(Nc2cc(Cl)nc(SCC(=O)O)n2)c1C | inactive and inconclusive: 23.1 µM [cytotoxic, single point] | 
16 | CC1=C(C(=O)O)N2C(=O)[C@@H](NC(=O)[C@H](N)C3=CCC=CC3)[C@H]2SC1 | inactive | 
17 | CC(=O)N(c1onc(C)c1C)S(=O)(=O)c1ccc(N)cc1 | inactive | 
18 | Cc1ccc(C(=O)Nc2cccc(C(F)(F)F)c2)cc1Nc1nc(-c2cccnc2)nc2c1cnn2C | active: 6.61 µM | 
19 | Cc1cc(NC(=O)Nc2ccc(F)c(F)c2)n(-c2ccccc2)n1 | inconclusive: 14.6 µM [cytotoxic, partial curve] | 
20 | C/C1=C\CC[C@]2(C)O[C@@H]2[C@H](O)[C@H](C(C)C)[C@H](OC(=O)/C=C/c2ccccc2)C1 | inconclusive: 20.2 µM [cytotoxic, single point] | 

Row | Compound | Potency | viability, % of control
21 | CCCCc1nc2cc(/C=C/C(=O)NO)ccc2n1CCN(CC)CC | active: 291 nM and active: 468 nM | 
22 | COC(=O)C1=COC(O[C@@H]2O[C@H](CO)[C@@H](O)[C@H](O)[C@H]2O)[C@@H]2[C@@](C)(O)[C@@H](OC(=O)/C=C/c3ccccc3)C[C@]12O (stereo not given in full) | inactive | 
23 | O=S(=O)(Cc1ccccc1)Nc1ccc(-c2ccc3c(cnn3-c3ccc(F)cc3)c2)c(C(F)(F)F)c1 | active: 20.6 µM | 
24 | CC/C=C/CC1=C(CCCCC(CCC(=O)O)OC(C)=O)CCC1=O (stereo not given) | inconclusive: 11.4 µM [cytotoxic, partial curve] | 
25 | Nc1ncnc2nc[nH]c12 | inactive | 
26 | C[C@@H]1O[C@@H](O[C@H]2[C@H](O)[C@@H](O[C@@H]3O[C@H](CO)[C@H](O)[C@H](O)[C@H]3O)[C@H](O[C@H]3CC[C@@]4(C)C(CC[C@]5(C)C4CC=C4[C@@H]6CC(C)(C)CC[C@]6(C(=O)O[C@@H]6O[C@H](CO)[C@@H](O)[C@H](O)[C@H]6O)CC[C@]45C)C3(C)C)O[C@@H]2C(=O)O)[C@H](O)[C@H](O)[C@H]1O (stereo not given in full) |  | inactive: 90.8% [at 9.25 µM]
27 | Cc1cnc(-c2cc(N3CCN(C(=O)CCS(C)(=O)=O)CC3)ncc2Cl)c(C)c1 | inconclusive: 16.4 µM [cytotoxic, partial curve, poor fit] and inconclusive: 14.8 µM [cytotoxic, partial curve, poor fit] | 
28 | NC(=O)C1(N2CCCCC2)CCN(CCCN2c3ccccc3CCc3ccc(Cl)cc32)CC1 | active: 8.41 µM | 
29 | N=C1S/C(=C\c2ccc(-c3ccc4c(c3)C(=O)NC4=O)o2)C(=O)N1c1ccc(Br)cc1 | inconclusive: 8.11 µM [cytotoxic, partial curve] | 
30 | Cc1cccc(N(C)C(=S)Oc2ccc3ccccc3c2)c1 | inconclusive: 13.3 µM [cytotoxic, partial curve] and inconclusive: 18.6 µM [cytotoxic, partial curve] | 
31 | CCO[C@@H]1OC(=O)C[C@@H]1NC(=O)[C@@H]1CCCN1C(=O)[C@@H](NC(=O)c1ccc(N)c(Cl)c1)C(C)(C)C | inconclusive: 32.6 µM [cytotoxic, partial curve, poor fit] and inconclusive: 16.6 µM [cytotoxic, partial curve] | 
32 | CC(C)c1cc(CNc2nc(Nc3cc(C4CC4)[nH]n3)cc(N3CCN(C)CC3)n2)on1 | active: 23.1 nM and inconclusive: 52.5 nM [cytotoxic, full curve] | 
33 | O=C(O)[C@H](CC(=O)N1C[C@H]2CCCC[C@H]2C1)Cc1ccccc1 | inconclusive: 6.51 µM [cytotoxic, single point] and inactive | 
34 | Cc1coc2c1CC1OC1(C)CCC1OC1(C)C2 (stereo not given) | inactive | 
35 | CCn1nc(C2CCN(C(=O)CCO)CC2)nc1-c1cnc(N)c(-c2nnc(C(C)(C)C)o2)n1 | inconclusive: 2.06 µM [cytotoxic, full curve] and active: 5.25 µM | 
36 | Cc1cc(Nc2cc(N)ncn2)c(=O)n2c1C(=O)NC21CCCCC1 | inconclusive: 9.1 µM [cytotoxic, partial curve] | 
37 | CC(CCC1(O)OC2CC3C4CC=C5CC(O[C@@H]6O[C@H](CO)[C@@H](O[C@@H]7O[C@@H](C)[C@H](O)[C@@H](O)[C@H]7O)[C@H](O)[C@H]6O[C@@H]6O[C@@H](C)[C@H](O)[C@@H](O)[C@H]6O)CCC5(C)C4CCC3(C)C2C1C)CO[C@@H]1O[C@H](CO)[C@@H](O)[C@H](O)[C@H]1O (stereo not given in full) | active: 3.48 µM | 
38 | O=C1OC2(c3ccc(O)cc3Oc3cc(O)ccc32)c2ccccc21 | inactive | 
39 | Nc1n[n+]([O-])c2ccccc2[n+]1[O-] | inconclusive: 16.6 µM [cytotoxic, partial curve, poor fit] | 
40 | CCC1OC(=O)C(C)CC(C)C(=O)/C(C)=C/C(C)C(=O)/C=C/C1(C)O (stereo not given) | inconclusive: 10.1 µM [cytotoxic, partial curve] | 
